Data published in the supplement of paper PMC6828730.
The other results are listed elsewhere or left out. Repeats are few or missing, and single values can be far off.

Each compound was assayed on hiPSC-derived cardiomyocytes (assay: time to death of most cells in well after compound addition (days); higher = less cardiotoxic). Conditions: screen: 1; 10 µM.

Structure (SMILES) | time to death of most cells in well
O=c1ncn2nc(Sc3ccc(F)cc3F)ccc2c1-c1c(Cl)cccc1Cl | 2.5
C=CC(=O)Nc1cccc(Oc2nc(Nc3ccc(N4CCN(C)CC4)cc3OC)ncc2Cl)c1 | 3.5
COc1ccc(-c2ccc3c(N4CCOCC4)nc(N4C[C@@H](C)O[C@@H](C)C4)nc3n2)cc1CO | 3
CCN1C(=CC(C)=O)Sc2ccc(OC)cc21 | > 7
O=C(Cc1ccc(-c2ccc(OCCN3CCOCC3)cc2)cn1)NCc1ccccc1 | > 7
Cc1cc(Nc2nc(N[C@@H](C)c3ccc(F)cc3)c(C#N)cc2F)n[nH]1 | > 7
CC[C@@H]1C(=O)N(C)c2cnc(Nc3ccc(C(=O)N[C@H]4CC[C@H](N5CCN(CC6CC6)CC5)CC4)cc3OC)nc2N1C(C)C [Volasertib (BI 6727)] | 2.5
NC(=O)c1ccc(-c2nc(-c3ccc4c(c3)OCCO4)c(-c3ccccn3)[nH]2)cc1 | 5
O=C1NC(=O)C(=Cc2ccc(-c3ccc(F)cc3)o2)S1 (stereo in doubt) | > 7
Cc1cc(Nc2nc(N[C@@H](C)c3ncc(F)cn3)ncc2Cl)[nH]n1 | 3
COc1ccc(-c2ccc3ncc4c(c3c2)n(-c2ccc(N3CCNCC3)c(C(F)(F)F)c2)c(=O)n4C)cn1 | 1
COc1cc2ncnc(Nc3cccc(Cl)c3F)c2cc1OC(=O)N1CCN(C)C[C@H]1C | 6.5
COc1ccc(CNC(=O)Nc2ncc([N+](=O)[O-])s2)cc1 | 2
CC(C)(C)c1cc(C=C(C#N)C#N)cc(C(C)(C)C)c1O [Tyrphostin 9] | 5
CCn1c(N)c(C(=O)NC)c(=O)c2ccc(C#CC(C)(O)COC)nc21 (stereo unspecified) | > 7
Cc1cn(-c2cc(NC(=O)c3ccc(C)c(Nc4nccc(-c5cccnc5)n4)c3)cc(C(F)(F)F)c2)cn1 [Nilotinib (AMN-107)] | > 7
N#CC[C@H](C1CCCC1)n1cc(-c2ncnc3[nH]ccc23)cn1 | > 7
COc1cc(N2CCC(N)CC2)ccc1Nc1ncc(Cl)c(-c2c[nH]c3ccccc23)n1 | 3
COc1c(C)c(C(=O)c2ccc(N)c(C(=O)O)c2)n2ccccc12 | > 7

Structure (SMILES) | time to death of most cells in well
CC(=O)Nc1cccc(-n2c(=O)n(C3CC3)c(=O)c3c(Nc4ccc(I)cc4F)n(C)c(=O)c(C)c32)c1 | > 7
Cc1nc2c(-c3cnc(N)nc3)nc(N3CCOCC3)nc2n1C(C)C | 3.5
O=C1c2ccccc2-c2n[nH]c3cccc1c23 | 6
CC[C@H](Nc1ncnc2[nH]cnc12)c1nc2cccc(F)c2c(=O)n1-c1ccccc1 [Idelalisib (CAL-101, GS-1101)] | > 7
N#Cc1ccc2[nH]c(O)c(-c3ccc(CN4CCOCC4)cn3)c2c1 | > 7
Cc1nc(N)sc1-c1ccnc(Nc2ccc(N3CCOCC3)cc2)n1 | 3
CNC(=O)c1c(F)cccc1Nc1nc(Nc2cc3c(cc2OC)CCN3C(=O)CN(C)C)nc2[nH]ccc12 | 3.5
COc1ccc2cc(-c3nc(-c4ccc([S+](C)[O-])cc4)[nH]c3-c3ccncc3)ccc2c1 (stereo unspecified) [Tie2 kinase inhibitor] | > 7
O=C(O)CCC(=O)Nc1ccc(Br)cn1 [Bikinin] | > 7
CCS(=O)(=O)Nc1ccc2[nH]c(O)c(C(=Nc3ccc(CN4CCCCC4)cc3)c3ccccc3)c2c1 [Hesperadin] | 5
COc1ccc2c(c1)/C(=C/c1cnc[nH]1)C(=O)N2 | > 7
Cc1[nH]c(/C=C2\C(=O)Nc3ccccc32)c(C)c1CCC(=O)O [Orantinib (TSU-68, SU6668)] | > 7
CS(=O)(=O)c1cccc(CNc2nc(Nc3ccc4c(c3)CCC(=O)N4)ncc2C(F)(F)F)c1 | > 7
COc1ccc2c(Oc3ccc(NC(=O)c4c(C)n(CC(C)(C)O)n(-c5ccccc5)c4=O)nc3)ccnc2c1 | > 7
CCN1CCN(Cc2ccc(Nc3ncc(F)c(-c4cc(F)c5nc(C)n(C(C)C)c5c4)n3)nc2)CC1 | 3
CCc1cncnc1N1CCN(Cc2nc3ccc(C(F)(F)F)cc3[nH]2)CC1 | > 7
CN1CCC(CNc2ccc3ncc(-c4cccc(OC(F)(F)F)c4)n3n2)CC1 [SGI-1776 free base] | 1.5
NC(=O)c1cccc(-c2cc(Nc3ccc(OC(F)(F)F)cc3)ncn2)c1 | > 7
O=c1[nH]c2ccc(Cl)cc2c(N[C@@H]2CN3CCC2CC3)c1-c1nc2ccccc2[nH]1 | 6

The compounds below were run on hiPSC-derived cardiomyocytes (assay: time to death of most cells in well after compound addition (days); higher = less cardiotoxic; extreme values may be limits of the assay). Conditions: screen: 2; 10 µM.

Structure (SMILES) | time to death of most cells in well
O=c1ncn2nc(Sc3ccc(F)cc3F)ccc2c1-c1c(Cl)cccc1Cl | 2
C=CC(=O)Nc1cccc(Oc2nc(Nc3ccc(N4CCN(C)CC4)cc3OC)ncc2Cl)c1 | 1
COc1ccc(-c2ccc3c(N4CCOCC4)nc(N4C[C@@H](C)O[C@@H](C)C4)nc3n2)cc1CO | 3
CCN1C(=CC(C)=O)Sc2ccc(OC)cc21 | > 7
O=C(Cc1ccc(-c2ccc(OCCN3CCOCC3)cc2)cn1)NCc1ccccc1 | > 7
Cc1cc(Nc2nc(N[C@@H](C)c3ccc(F)cc3)c(C#N)cc2F)n[nH]1 | 6.5
CC[C@@H]1C(=O)N(C)c2cnc(Nc3ccc(C(=O)N[C@H]4CC[C@H](N5CCN(CC6CC6)CC5)CC4)cc3OC)nc2N1C(C)C [Volasertib (BI 6727)] | 3.5
NC(=O)c1ccc(-c2nc(-c3ccc4c(c3)OCCO4)c(-c3ccccn3)[nH]2)cc1 | > 7
O=C1NC(=O)C(=Cc2ccc(-c3ccc(F)cc3)o2)S1 (stereo in doubt) | > 7
Cc1cc(Nc2nc(N[C@@H](C)c3ncc(F)cn3)ncc2Cl)[nH]n1 | 5
COc1ccc(-c2ccc3ncc4c(c3c2)n(-c2ccc(N3CCNCC3)c(C(F)(F)F)c2)c(=O)n4C)cn1 | 0
COc1cc2ncnc(Nc3cccc(Cl)c3F)c2cc1OC(=O)N1CCN(C)C[C@H]1C | 3
COc1ccc(CNC(=O)Nc2ncc([N+](=O)[O-])s2)cc1 | 2
CC(C)(C)c1cc(C=C(C#N)C#N)cc(C(C)(C)C)c1O [Tyrphostin 9] | 0.5
CCn1c(N)c(C(=O)NC)c(=O)c2ccc(C#CC(C)(O)COC)nc21 (stereo unspecified) | > 7
Cc1cn(-c2cc(NC(=O)c3ccc(C)c(Nc4nccc(-c5cccnc5)n4)c3)cc(C(F)(F)F)c2)cn1 [Nilotinib (AMN-107)] | > 7
N#CC[C@H](C1CCCC1)n1cc(-c2ncnc3[nH]ccc23)cn1 | > 7
COc1cc(N2CCC(N)CC2)ccc1Nc1ncc(Cl)c(-c2c[nH]c3ccccc23)n1 | 2
COc1c(C)c(C(=O)c2ccc(N)c(C(=O)O)c2)n2ccccc12 | > 7

Structure (SMILES) | time to death of most cells in well
CC(=O)Nc1cccc(-n2c(=O)n(C3CC3)c(=O)c3c(Nc4ccc(I)cc4F)n(C)c(=O)c(C)c32)c1 | 5
Cc1nc2c(-c3cnc(N)nc3)nc(N3CCOCC3)nc2n1C(C)C | 4.5
O=C1c2ccccc2-c2n[nH]c3cccc1c23 | > 7
CC[C@H](Nc1ncnc2[nH]cnc12)c1nc2cccc(F)c2c(=O)n1-c1ccccc1 [Idelalisib (CAL-101, GS-1101)] | > 7
N#Cc1ccc2[nH]c(O)c(-c3ccc(CN4CCOCC4)cn3)c2c1 | > 7
Cc1nc(N)sc1-c1ccnc(Nc2ccc(N3CCOCC3)cc2)n1 | > 7
CNC(=O)c1c(F)cccc1Nc1nc(Nc2cc3c(cc2OC)CCN3C(=O)CN(C)C)nc2[nH]ccc12 | 4
COc1ccc2cc(-c3nc(-c4ccc([S+](C)[O-])cc4)[nH]c3-c3ccncc3)ccc2c1 (stereo unspecified) [Tie2 kinase inhibitor] | > 7
O=C(O)CCC(=O)Nc1ccc(Br)cn1 [Bikinin] | 3.5
CCS(=O)(=O)Nc1ccc2[nH]c(O)c(C(=Nc3ccc(CN4CCCCC4)cc3)c3ccccc3)c2c1 [Hesperadin] | > 7
COc1ccc2c(c1)/C(=C/c1cnc[nH]1)C(=O)N2 | > 7
Cc1[nH]c(/C=C2\C(=O)Nc3ccccc32)c(C)c1CCC(=O)O [Orantinib (TSU-68, SU6668)] | > 7
CS(=O)(=O)c1cccc(CNc2nc(Nc3ccc4c(c3)CCC(=O)N4)ncc2C(F)(F)F)c1 | > 7
COc1ccc2c(Oc3ccc(NC(=O)c4c(C)n(CC(C)(C)O)n(-c5ccccc5)c4=O)nc3)ccnc2c1 | > 7
CCN1CCN(Cc2ccc(Nc3ncc(F)c(-c4cc(F)c5nc(C)n(C(C)C)c5c4)n3)nc2)CC1 | 0.5
CCc1cncnc1N1CCN(Cc2nc3ccc(C(F)(F)F)cc3[nH]2)CC1 | > 7
CN1CCC(CNc2ccc3ncc(-c4cccc(OC(F)(F)F)c4)n3n2)CC1 [SGI-1776 free base] | 0.5
NC(=O)c1cccc(-c2cc(Nc3ccc(OC(F)(F)F)cc3)ncn2)c1 | > 7
O=c1[nH]c2ccc(Cl)cc2c(N[C@@H]2CN3CCC2CC3)c1-c1nc2ccccc2[nH]1 | 4
